In PubChem BioAssay AID624417 (National Center for Advancing Translational Sciences (NCATS), 2012):
Hit rate of the full screen: of about 410,000 compounds, about 6,400 (1.6%) were called active. This list was built around the results that the source calls inconclusive (neither active nor inactive); the mix of calls is not that of the screen. The call rests on the fitted dose curve; in most records, active means well fitted inhibition curve with a large enough effect; inconclusive means small, poorly fitted or top-dose-only effect; inactive means no such curve, though single readings can be large or run the other way. No potency is given beside an inconclusive call; the fits are too rough.

target: Glucagon-like peptide 1 receptor (Homo sapiens) (UniProt P43220); experiment: qHTS of GLP-1 Receptor Inverse Agonists (Inhibition Mode); conditions: HEK293 GLP-1R CRE-luciferase, luminescence, 24 h, GLP-1R form is constitutively active; series mostly up to 38.3 µM; further: nearly all actives have a fitted effect of over 55% in size
In short: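 Constitutively active GLP-1R drives a cAMP-responsive luciferase in stably transfected HEK293 cells; test compounds are added after overnight (12 h) attachment and left 24 hr, and signal loss in luminescence marks inhibition.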
Potency means the concentration at half of the fitted maximal effect; tags describe the fitted curve by direction and shape.

Chain of UniProt P43220 (P43220 whole entry, looked up): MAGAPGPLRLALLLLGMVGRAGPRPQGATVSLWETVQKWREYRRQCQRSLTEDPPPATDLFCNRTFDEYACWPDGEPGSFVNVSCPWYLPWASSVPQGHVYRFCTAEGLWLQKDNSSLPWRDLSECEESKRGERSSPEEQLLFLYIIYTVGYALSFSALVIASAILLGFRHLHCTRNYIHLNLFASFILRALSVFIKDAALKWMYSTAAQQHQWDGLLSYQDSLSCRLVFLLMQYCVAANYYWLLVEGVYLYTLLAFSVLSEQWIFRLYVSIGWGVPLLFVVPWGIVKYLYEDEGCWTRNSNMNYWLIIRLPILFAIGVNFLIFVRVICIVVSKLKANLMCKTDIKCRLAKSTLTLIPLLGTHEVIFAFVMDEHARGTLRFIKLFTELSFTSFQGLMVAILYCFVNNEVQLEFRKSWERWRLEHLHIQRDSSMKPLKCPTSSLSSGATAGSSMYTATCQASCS

Compound	Potency
O=C(NC(NNc1ccc([N+](=O)[O-])cc1)(C(F)(F)F)C(F)(F)F)c1ccc(F)cc1	inconclusive [inhibitor, partial curve, poor fit]
O=[N+]([O-])c1ccc(CSC2=NCCN2)cc1	inconclusive [inhibitor, single point]
OCCN1CCN(CC/C=C2/c3ccccc3Sc3ccc(C(F)(F)F)cc32)CC1	inconclusive [inhibitor, partial curve, poor fit]
C/C(=C\c1ccccc1)CN1CCN(Cc2ccc(C)o2)C(CCO)C1 (configuration not stated)	inactive
O=C(C1CCCN(c2ncnc3c2nc2n3CCCCC2)C1)N1CCN(c2ccccc2F)CC1 (configuration not stated)	inconclusive [inhibitor, full curve, poor fit]
CCC(CO)Nc1nc2ccc(Cl)cc2c2ccccc12 (configuration not stated)	inconclusive [inhibitor, full curve, poor fit]
NC(=O)c1cccc(-c2ccnc3c2CC(C(=O)NCc2ccc(F)c(F)c2)O3)c1 (configuration not stated)	inconclusive [inhibitor, partial curve, poor fit]
COc1ccc(CNCCCn2cnc3c(OCc4ccccc4)ncnc32)cc1	inconclusive [inhibitor, partial curve, poor fit]
c1ccc(COc2ccc(-c3cc4nc(NCCN5CCOCC5)ccn4n3)cc2)cc1	inconclusive [inhibitor, single point]
CCN(C(=O)c1ccc(C)c(Br)c1)c1ccccc1	active: 10 µM
Cc1ccc(Nc2nnc(SCC(=O)c3ccc(Br)s3)s2)c(C)c1	inconclusive [inhibitor, single point]
CCN(CC)CCCNC(=O)c1cn(CC)c2ccc(S(=O)(=O)N(C)C3CCCCC3)cc2c1=O	inconclusive [inhibitor, partial curve, poor fit]
CC(COc1ccccc1)OC(=O)Nc1ccccc1 (configuration not stated)	inconclusive [inhibitor, single point]
O=C(Nc1cccc(NC(=O)c2cccs2)c1)c1ccc2c(c1)OCO2	inconclusive [inhibitor, single point]
CC1(C)Cc2ccccc2C(N/N=C/c2ccc(Cl)cc2)=N1	inconclusive [inhibitor, full curve, poor fit]
CC(C)c1nc(N2CCN(C(=O)c3ccco3)CC2)c(C#N)c2c1COC(C)(C)C2	inconclusive [inhibitor, single point]
Cc1cc(/C=N/n2cnnc2)c(O)c([N+](=O)[O-])c1	inactive
CCOc1ccc(Oc2c(/C=N/NC(=O)COc3ccccc3OC)c(C)nn2-c2ccccc2)cc1	inconclusive [inhibitor, partial curve, poor fit]
CCCN1C(=O)c2[nH]nc(-c3ccccc3O)c2C1c1ccc(OCc2ccccc2)c(OC)c1 (configuration not stated)	inconclusive [inhibitor, single point]
COC(=O)CSc1nc(-c2ccc(C)cc2)c2c(c1C#N)CCCC2	inconclusive [inhibitor, partial curve, poor fit]
COc1ccc(CN(CCCN2CCOCC2)C(=O)Nc2cccc(Cl)c2)cc1OC	inconclusive [inhibitor, single point]

Compound	Potency
Cc1ccccc1OCCSc1nc2ccc(NC(=O)c3ccccc3)cc2s1	active: 2.82 µM
CCN(c1ccccc1)S(=O)(=O)c1cccc(C(=O)Nc2ccc(C)cn2)c1	inconclusive [inhibitor, single point]
NC(N)=NS(=O)(=O)c1ccc(N)cc1	inactive
CCn1c(C(=O)NCc2ccccc2C)cc2oc3ccccc3c21	active: 5.01 µM
COC(=O)c1ccccc1NC(=O)c1ncoc1-c1ccco1	inactive
CCCc1cc(=O)oc2c3c(ccc12)OCN(Cc1ccc(OC)cc1)C3	inactive
C=CCc1ccc(OCCN2CCc3ccccc3C2)c(OC)c1	inconclusive [inhibitor, partial curve, poor fit]
CCCCC1Cc2[nH][nH]c(=O)c2C(c2ccc(F)cc2)O1 (configuration not stated)	inconclusive [inhibitor, single point]
C/C(=N\NC(=O)c1cc2ccccc2cc1O)c1ccc(C)o1	inconclusive [inhibitor, single point]
COc1ccc(NS(=O)(=O)c2ccc(NC(=S)NCC3CCCO3)cc2)cc1 (configuration not stated)	inconclusive [inhibitor, single point]
CC(=O)c1cccc(CN2CCC(C(=O)Nc3ccc(Oc4cccnc4)cc3)CC2)c1	inconclusive [inhibitor, single point]
O=C(CC1(O)C(=O)Nc2cc(Cl)cc(Cl)c21)c1ccccc1O (configuration not stated)	inconclusive [inhibitor, single point]
CC(Sc1nnc(NC2CCCCC2)s1)C(=O)Nc1ccc2c(c1)C(=O)c1ccccc1C2=O (configuration not stated)	inconclusive [inhibitor, single point]
O=C(NCCc1ccccc1)c1coc(=O)c(Br)c1	inconclusive [inhibitor, single point]
O=C(Nc1ccsn1)c1ccc(Cl)cc1Cl	inactive
COc1cc(CNc2ccc(N3CCOCC3)cc2)ccc1OCC(=O)NC(C)(C)C	inactive
CCN(CC)CCC(=O)Nc1ccc2c(c1)N(C(=O)CN(CC)CC)c1ccccc1CC2	inconclusive [inhibitor, partial curve, poor fit]
COc1ccccc1N1CCN(c2ccc([N+](=O)[O-])cc2Cl)CC1	inconclusive [inhibitor, partial curve, poor fit]
CCc1ccc(NC(=O)CSc2nccn2-c2ccc(OC)cc2)cc1	active: 10 µM
O=C(CCCSc1nc2ccccc2s1)NCc1ccco1	inconclusive [inhibitor, partial curve, poor fit]
c1coc(-c2nc3ccccc3nc2-c2ccco2)c1	inactive
